40 compounds from the supplement of paper PMC8047034 can be followed below.

Structures are written as SMILES. Structures can show the parent of a compound that is named as a salt. The list shows a part of the results. Repeats are few or missing, and single values can be far off.

The test system of the first assay is OVCAR4. In words: log2 surviving fraction (library drug vs vehicle, or drug + carboplatin vs carboplatin alone; relative to plate median); ovarian cancer lines: OVCAR4 is platinum-sensitive and Ov4Carbo platinum-resistant; higher = more cell survival. To be noted: library drug concentration 10 µM; 7 days; carboplatin co-treatment 5 µM.
As for `N=C(N)NC(=O)c1nc(Cl)c(N)nc1N` [Amiloride hydrochloride dihydrate], the log2 surviving fraction is -0.0733.

As for `CC(=O)O[C@H]1C[C@@H]2CC[C@@H]3[C@H](CC[C@@]4(C)[C@H]3C[C@H]([N+]3(C)CCCCC3)[C@@H]4OC(C)=O)[C@@]2(C)C[C@@H]1[N+]1(C)CCCCC1` [Pancuronium (Pavulon)], the log2 surviving fraction is 0.293.

`COC(=O)CCc1ccc(OCC(O)CNC(C)C)cc1` (centres undefined) [Esmolol HCl]: the log2 surviving fraction amounted to 0.019.

Consider `CN1[C@@H]2CC[C@H]1C[C@@H](OC(c1ccccc1)c1ccccc1)C2` [Benztropine mesylate], for which the log2 surviving fraction was -1.85.

In the case of `CCN1CCN(C(=O)N[C@@H](C(=O)N[C@@H]2C(=O)N3C(C(=O)O)=C(CSc4nnnn4C)CS[C@H]23)c2ccc(O)cc2)C(=O)C1=O` [Cefoperazone (Cefobid)], the log2 surviving fraction was -0.744.

With `CN1CCC(=C2c3ccccc3CCc3cccnc32)CC1` [Azatadine dimaleate], the log2 surviving fraction is -0.715.

Regarding `CCc1c2c(nc3ccc(OC(=O)N4CCC(N5CCCCC5)CC4)cc13)-c1cc3c(c(=O)n1C2)COC(=O)[C@]3(O)CC` [Irinotecan HCl Trihydrate (Campto)], the log2 surviving fraction was -6.75.

For `CCCCc1oc2ccccc2c1C(=O)c1cc(I)c(OCCN(CC)CC)c(I)c1` [Amiodarone HCl], the log2 surviving fraction is 0.108.

Regarding `NNC(=O)c1ccncc1` [Isoniazid (Tubizid)], the log2 surviving fraction is -0.946.

With `CCCCN1CCCCC1C(=O)Nc1c(C)cccc1C` (centres undefined) [Bupivacaine hydrochloride (Marcain)], the log2 surviving fraction is -0.104.

In the case of `CN(C)CCCOc1nn(Cc2ccccc2)c2ccccc12` [Benzydamine Hydrochloride], the log2 surviving fraction is -1.01.

On to `Nc1ccn([C@H]2CC[C@@H](CO)O2)c(=O)n1` [Zalcitabine], for which the log2 surviving fraction was -0.159.

Regarding `CCCCCN(C)CCC(O)(P(=O)(O)O)P(=O)(O)O` [Ibandronate sodium], the log2 surviving fraction was -3.73.

With `C[C@]12CCC(=O)C=C1[C@@H]1C[C@@H]1[C@H]1[C@@H]3[C@@H]4C[C@@H]4[C@@]4(CCC(=O)O4)[C@@]3(C)CC[C@@H]12` [Drospirenone], the log2 surviving fraction was 0.153.

Consider `CC(C)(O/N=C(\C(=O)N[C@@H]1C(=O)N2C(C(=O)[O-])=C(C[n+]3ccccc3)CS[C@H]12)c1csc(N)n1)C(=O)O` [Ceftazidime Pentahydrate], for which the log2 surviving fraction is -0.00321.

For `C=C(NC(=O)C(=C)NC(=O)c1csc(C2=N[C@@H]3c4csc(n4)[C@H]4NC(=O)c5csc(n5)[C@H]([C@](C)(O)[C@@H](C)O)NC(=O)[C@H]5CSC(=N5)/C(=C/C)NC(=O)[C@H]([C@@H](C)O)NC(=O)c5csc(n5)[C@]3(CC2)NC(=O)[C@H](C)NC(=O)C(=C)NC(=O)[C@H](C)NC(=O)[C@H]([C@@H](C)CC)N[C@@H]2C=Cc3c([C@H](C)O)cc(nc3[C@H]2O)C(=O)O[C@@H]4C)n1)C(N)=O` [Thiostrepton], the log2 surviving fraction is -8.02.

`NCC[C@H](O)C(=O)N[C@@H]1C[C@H](N)[C@@H](O[C@H]2O[C@H](CN)[C@@H](O)[C@H](O)[C@H]2O)[C@H](O)[C@H]1O[C@H]1O[C@H](CO)[C@@H](O)[C@H](N)[C@H]1O` [Amikacin hydrate]: the log2 surviving fraction is -0.85.

As for `O=C1CCc2ccc(OCCCCN3CCN(c4cccc(Cl)c4Cl)CC3)cc2N1` [Aripiprazole (Abilify)], the log2 surviving fraction is -0.383.

In the case of `CCCc1nc(C(C)(C)O)c(C(=O)OCc2oc(=O)oc2C)n1Cc1ccc(-c2ccccc2-c2nnn[nH]2)cc1` [Olmesartan medoxomil (Benicar)], the log2 surviving fraction was -0.141.

As to `CNCCc1ccccn1` [Betahistine 2HCl], the log2 surviving fraction is -0.031.

For the compound `CC(C(=O)O)c1ccc(-c2ccccc2)c(F)c1` (centres undefined) [Flurbiprofen (Ansaid)], the log2 surviving fraction stood at 0.0382.

For `CCCCCCCCCCCCCCCCCCCCCCO` [Docosanol (Abreva)], the log2 surviving fraction is -0.00338.

As for `CC=CC1=C(C(=O)O)N2C(=O)[C@@H](NC(=O)[C@H](N)c3ccc(O)cc3)[C@H]2SC1` [Cefprozil hydrate (Cefzil)], the log2 surviving fraction is -0.12.

As for `CN1C(C(=O)Nc2ccccn2)=C(O)c2sccc2S1(=O)=O` [Tenoxicam (Mobiflex)], the log2 surviving fraction was determined as 0.0577.

`COc1cc(C(=O)NS(=O)(=O)c2ccccc2C)ccc1Cc1cn(C)c2ccc(NC(=O)OC3CCCC3)cc12` [Zafirlukast (Accolate)]: the log2 surviving fraction came out at 0.506.

Regarding `Fc1ccc([C@@H]2CCNC[C@H]2COc2ccc3c(c2)OCO3)cc1` [Paroxetine HCl], the log2 surviving fraction was -5.67.

As for `CCCCCCCCCCCCCCCC[N+](C)(C)C` [Cetrimonium Bromide], the log2 surviving fraction was -7.

Consider `COc1c2occc2cc2ccc(=O)oc12` [Methoxsalen (Oxsoralen)], for which the log2 surviving fraction was -0.081.

Turning to `O=C1OC(CN2CCOCC2)CN1/N=C/c1ccc([N+](=O)[O-])o1` (centres undefined) [Furaltadone HCl], the log2 surviving fraction was -0.441.

For the next assay, the system named is Ov4Carbo. The assay is described as above. As to conditions: library drug concentration 10 µM; 7 days; carboplatin co-treatment 0 µM.
Turning to `O=C(CCCN1CC=C(n2c(=O)[nH]c3ccccc32)CC1)c1ccc(F)cc1` [Droperidol], the log2 surviving fraction is -0.0853.

With `CCOC(=O)C1=C(COCCN)NC(C)=C(C(=O)OC)C1c1ccccc1Cl` (centres undefined) [Amlodipine besylate (Norvasc)], the log2 surviving fraction was -2.69.

On to `CC[N+](CC)(CC)CCOc1cccc(OCC[N+](CC)(CC)CC)c1OCC[N+](CC)(CC)CC` [Gallamine triethiodide (Flaxedil)], for which the log2 surviving fraction was 0.344.

`CN(C)CCc1c[nH]c2ccc(Cn3cncn3)cc12` [Rizatriptan Benzoate (Maxalt)]: the log2 surviving fraction was 0.42.

Take `CN(C)C(=N)NC(=N)N` [Metformin hydrochloride (Glucophage)]: the log2 surviving fraction is -1.27.

As to `CC1(C)O[C@@H]2C[C@H]3[C@@H]4CCC5=CC(=O)C=C[C@]5(C)[C@H]4[C@@H](O)C[C@]3(C)[C@]2(C(=O)CO)O1` [Desonide], the log2 surviving fraction is -0.411.

Turning to `O[C@@H]1CO[C@H]2[C@@H]1OC[C@@H]2O` [Isosorbide], the log2 surviving fraction was determined as 0.344.

As to `CC(=O)NS(=O)(=O)c1ccc(NC(=O)c2ccccc2C(=O)O)cc1` [Phthalylsulfacetamide], the log2 surviving fraction turned out to be 0.591.

On to `Oc1ccc(OC2CCCCO2)cc1` (centres undefined) [Deoxyarbutin], for which the log2 surviving fraction was -1.85.

As to `O=P1(NCCCl)OCCCN1CCCl` (centres undefined) [Ifosfamide], the log2 surviving fraction was -0.0329.

For the compound `CC[C@@H]1/C=C(\C)C[C@H](C)C[C@H](OC)[C@H]2O[C@@](O)(C(=O)C(=O)N3CCCC[C@H]3C(=O)O[C@H](/C(C)=C/[C@@H]3CC[C@H](Cl)[C@H](OC)C3)[C@H](C)[C@@H](O)CC1=O)[C@H](C)C[C@@H]2OC` [Pimecrolimus], the log2 surviving fraction is -1.68.

With `N=C(N)NC(=O)c1nc(Cl)c(N)nc1N` [Amiloride hydrochloride dihydrate], the log2 surviving fraction is -0.145.

In the case of `CC(=O)O[C@H]1C[C@@H]2CC[C@@H]3[C@H](CC[C@@]4(C)[C@H]3C[C@H]([N+]3(C)CCCCC3)[C@@H]4OC(C)=O)[C@@]2(C)C[C@@H]1[N+]1(C)CCCCC1` [Pancuronium (Pavulon)], the log2 surviving fraction is 0.489.

With `COC(=O)CCc1ccc(OCC(O)CNC(C)C)cc1` (centres undefined) [Esmolol HCl], the log2 surviving fraction worked out at 0.422.

Turning to `CN1[C@@H]2CC[C@H]1C[C@@H](OC(c1ccccc1)c1ccccc1)C2` [Benztropine mesylate], the log2 surviving fraction is -2.99.

Consider `CCN1CCN(C(=O)N[C@@H](C(=O)N[C@@H]2C(=O)N3C(C(=O)O)=C(CSc4nnnn4C)CS[C@H]23)c2ccc(O)cc2)C(=O)C1=O` [Cefoperazone (Cefobid)], for which the log2 surviving fraction stood at 0.816.

Regarding `CN1CCC(=C2c3ccccc3CCc3cccnc32)CC1` [Azatadine dimaleate], the log2 surviving fraction was -0.903.

Take `CCc1c2c(nc3ccc(OC(=O)N4CCC(N5CCCCC5)CC4)cc13)-c1cc3c(c(=O)n1C2)COC(=O)[C@]3(O)CC` [Irinotecan HCl Trihydrate (Campto)]: the log2 surviving fraction is -7.11.

For `CCCCc1oc2ccccc2c1C(=O)c1cc(I)c(OCCN(CC)CC)c(I)c1` [Amiodarone HCl], the log2 surviving fraction was -1.31.

`NNC(=O)c1ccncc1` [Isoniazid (Tubizid)]: the log2 surviving fraction amounted to 0.00809.

On to `CCCCN1CCCCC1C(=O)Nc1c(C)cccc1C` (centres undefined) [Bupivacaine hydrochloride (Marcain)], for which the log2 surviving fraction is -0.277.

In the case of `CN(C)CCCOc1nn(Cc2ccccc2)c2ccccc12` [Benzydamine Hydrochloride], the log2 surviving fraction was -1.1.

With `Nc1ccn([C@H]2CC[C@@H](CO)O2)c(=O)n1` [Zalcitabine], the log2 surviving fraction was -0.776.

In the case of `CCCCCN(C)CCC(O)(P(=O)(O)O)P(=O)(O)O` [Ibandronate sodium], the log2 surviving fraction is -6.31.

Take `C[C@]12CCC(=O)C=C1[C@@H]1C[C@@H]1[C@H]1[C@@H]3[C@@H]4C[C@@H]4[C@@]4(CCC(=O)O4)[C@@]3(C)CC[C@@H]12` [Drospirenone]: the log2 surviving fraction stood at 0.647.

Regarding `CC(C)(O/N=C(\C(=O)N[C@@H]1C(=O)N2C(C(=O)[O-])=C(C[n+]3ccccc3)CS[C@H]12)c1csc(N)n1)C(=O)O` [Ceftazidime Pentahydrate], the log2 surviving fraction amounted to 0.0332.

As to `C=C(NC(=O)C(=C)NC(=O)c1csc(C2=N[C@@H]3c4csc(n4)[C@H]4NC(=O)c5csc(n5)[C@H]([C@](C)(O)[C@@H](C)O)NC(=O)[C@H]5CSC(=N5)/C(=C/C)NC(=O)[C@H]([C@@H](C)O)NC(=O)c5csc(n5)[C@]3(CC2)NC(=O)[C@H](C)NC(=O)C(=C)NC(=O)[C@H](C)NC(=O)[C@H]([C@@H](C)CC)N[C@@H]2C=Cc3c([C@H](C)O)cc(nc3[C@H]2O)C(=O)O[C@@H]4C)n1)C(N)=O` [Thiostrepton], the log2 surviving fraction is -8.11.

For the compound `NCC[C@H](O)C(=O)N[C@@H]1C[C@H](N)[C@@H](O[C@H]2O[C@H](CN)[C@@H](O)[C@H](O)[C@H]2O)[C@H](O)[C@H]1O[C@H]1O[C@H](CO)[C@@H](O)[C@H](N)[C@H]1O` [Amikacin hydrate], the log2 surviving fraction is 0.749.

On to `O=C1CCc2ccc(OCCCCN3CCN(c4cccc(Cl)c4Cl)CC3)cc2N1` [Aripiprazole (Abilify)], for which the log2 surviving fraction is -7.03.

Take `CCCc1nc(C(C)(C)O)c(C(=O)OCc2oc(=O)oc2C)n1Cc1ccc(-c2ccccc2-c2nnn[nH]2)cc1` [Olmesartan medoxomil (Benicar)]: the log2 surviving fraction turned out to be 0.954.
